Consider 43 molecules from ChEMBL document CHEMBL4888484, “Replenishing the malaria drug discovery pipeline: Screening and hit evaluation of the MMV Hit Generation Library 1 (HGL1) against asexual blood stage Plasmodium falciparum ,using a nano luciferase reporter read-out” (2022).

About 540 (0.36%) of roughly 150,000 compounds showed an effect of 50% or more. The list shows a part of the results.

This test has as its system Plasmodium falciparum. The experiment in a line: Primary screen in NF54 nanoGlo assay, in single point, at 2uM, 72h; a lower Z score goes with more inhibition. It counts as functional, Erythrocyte. Conditions: timepoint 72 hour.
In the case of `COc1ccc(C(NCC2(OC)CCOCC2)C2CCCN2C(=O)OC(C)(C)C)cc1` (stereo unspecified), the “% Inhibition” value is -8% and the Z score came out at 1.52.
Turning to `CC(C)CCn1c(CCCC(=O)N2CCC(C)CC2)nc2cccnc21`, the “% Inhibition” value is on record as -19% and the Z score is recorded as 2.35.
In the case of `Cc1cc(NC(=O)[C@H]2CCC2(C)C)ncn1`, the “% Inhibition” value is -8% and the Z score came to 1.47.
For `CCc1c(-c2ccncc2)n[nH]c1NS(=O)(=O)c1cncc(F)c1` the same measures were -20% and 2.72.
Taken in the same sequence, the figures for `CC(=O)Nc1ncc(Br)cc1C` were 33% and -0.41.
Taken in the same sequence, the figures for `O=C(c1cc2c(F)cccc2s1)N1CCC[C@H]1c1ccc2c(c1)OCCO2` were -4% and 0.49.
As for `CN(C(=O)CS(C)(=O)=O)C1CCC(C(C)(C)C)CC1` (stereo unspecified), the “% Inhibition” value is recorded as -7% and the Z score was determined as 1.34.
Taken in the same sequence, the figures for `Cc1ccncc1NC(=O)c1snnc1C1CC1` were -7% and 0.9.
For `CN1CCN2CCN(C(=O)CCc3cccc(O)c3)C[C@@H]2C1` the same measures were -1% and 0.29.
With `CS(=O)(=O)N1CCN(c2nc(C(F)(F)F)nc3ccsc23)CC1`, the “% Inhibition” value is -13% and the Z score is on record as 1.9.
`Cc1cnn(CCNc2nn3cc(C)nc3s2)c1`: the “% Inhibition” value is given as -4% and the Z score is 0.48.
For `O=C1C(N2CCCC2c2ccc3c(c2)OCCO3)CCN1CC(F)(F)F` (stereo unspecified) the same measures were -3% and 0.32.
For `CCN(c1nccnc1C)S(=O)(=O)c1ccc2c(c1)C(=O)N(C)C2=O`, the “% Inhibition” value was -7% and the Z score is 1.11.
Taken in the same sequence, the figures for `CCn1cc(C(=O)N2C[C@H]3CN(S(=O)(=O)CC)C[C@@]3(c3nc(C)no3)C2)cn1` were -6% and 0.8.
Taken in the same sequence, the figures for `CS(=O)(=O)c1ccsc1NC(=O)CCc1ccc(Cl)s1` were -7% and 1.3.
Turning to `C[C@@H](c1cccnc1)N(C)Cc1ccc2c(c1)CCO2`, the “% Inhibition” value is 5% and the Z score is recorded as -0.82.
With `N#Cc1ccc(-n2nc([C@H]3CCOC3)nc2CC2=CCCC2)cc1`, the “% Inhibition” value is on record as -5% and the Z score is 0.68.
Taken in the same sequence, the figures for `Cn1c(=O)c2c(ncn2CC(=O)c2ccc3c(c2)CCO3)n(C)c1=O` were -15% and 1.24.
For `CCN1CN(Cc2c(C)nsc2C)CC1=O` the same measures were 0% and -0.04.
Regarding `COCCO[C@H]1CCN(C(=O)Cc2cnn(C)c2)C1`, the “% Inhibition” value is listed as -3% and the Z score worked out at 0.36.
For the molecule `Cc1ccc(-c2cc(N3CCN(C(=O)c4ccccc4C(F)(F)F)CC3)ncn2)cc1`, the “% Inhibition” value is on record as -3% and the Z score was 0.52.
For `O=C(Cc1cc(-c2ccccc2)on1)NCCCN1CCOCC1` the same measures were -7% and 0.85.
`Cc1ccc(-n2nnc(C(=O)NCc3cccnc3)c2C)c(C)c1`: the “% Inhibition” value is on record as -13% and the Z score turned out to be 1.37.
Regarding `Cc1nn(Cc2ccc(Cl)cc2)c(=O)n1-c1cccc(C(F)(F)F)c1`, the “% Inhibition” value is -4% and the Z score is recorded as 0.56.
Taken in the same sequence, the figures for `Cc1cc(NC(=O)NCCN2CCC[C@H](C(N)=O)C2)n(C2CCCC2)n1` were -11% and 1.85.
Turning to `O=S(=O)(c1ccccc1)C1CC2CCC(C1)N2S(=O)(=O)C1CC1` (stereo unspecified), the “% Inhibition” value was -13% and the Z score is listed as 1.63.
Regarding `O=C(Cc1cccc2ccccc12)N1c2ccccc2CCc2ccccc21`, the “% Inhibition” value is given as -2% and the Z score turned out to be 0.28.
Turning to `NS(=O)(=O)N1CCN(CCC(=O)NCCc2ccccc2)CC1`, the “% Inhibition” value was -10% and the Z score stood at 1.6.
`Cc1cc(Cl)ccc1NC(=O)c1cc(CN2CCCC2)on1`: the “% Inhibition” value is -10% and the Z score worked out at 1.57.
On to `CC[C@H]1CCCCN1C(=O)Cn1cccc1-c1nc(-c2ccc3c(c2)OCO3)no1`, for which the “% Inhibition” value is reported as 6% and the Z score is -0.94.
Take `COC(=O)[C@]1(N(Cc2ccccc2)C(=O)Cc2ccc(F)c(F)c2)CCOC1`: the “% Inhibition” value stood at 0% and the Z score was 0.05.
For `Fc1ccc2nc(CN3CCCc4ccccc43)cn2c1` the same measures were -12% and 1.33.
For `Cn1cc(C#N)cc1-c1nc(CC(N)=O)nn1-c1cccc2c1CCC2` the same measures were -10% and 1.35.
On to `COc1ccc(-c2cn(-c3ccc(F)cc3)c(NC(=O)CN(C(=O)c3ccccc3F)C(C)C)n2)cc1`, for which the “% Inhibition” value was 7% and the Z score was -0.87.
In the case of `CC[C@H](O)C1CCN(C(=O)CCc2nnc(CCCc3ccccc3)o2)CC1`, the “% Inhibition” value is 5% and the Z score was -0.67.
Taken in the same sequence, the figures for `CCCCn1nc(C(C)C)nc1-c1cncnc1C` were -3% and 0.3.
Take `O=C(O)c1ccc(Cl)c(CN2CCC[C@H](n3cncn3)C2)c1`: the “% Inhibition” value is given as -11% and the Z score came to 2.19.
As for `Cc1ccccc1C(=O)Nc1ccsc1-c1nnc(C2CC2)o1`, the “% Inhibition” value was -8% and the Z score is listed as 0.85.
Regarding `CS(=O)(=O)CC1(Cn2cc(Br)cn2)CC1`, the “% Inhibition” value is given as 3% and the Z score was -0.45.
On to `CN1CCc2c(c3ccccc3n2C[C@H](O)c2ccccc2)C1`, for which the “% Inhibition” value was -11% and the Z score was found to be 1.31.
For `O=C(COc1ccccn1)N1CCN(S(=O)(=O)c2ccc3ccccc3c2)CC1` the same measures were -1% and 0.22.
For `Cc1nc(C(F)(F)F)c(CN2CC[C@@H](N(C)CCO)[C@H]2C)s1` the same measures were -8% and 0.94.
Taken in the same sequence, the figures for `COCCOC[C@H]1CCN(C(=O)C2(C#N)CCCC2)C1` were -6% and 0.8.

Usually % Inhibition stands for the change of the read-out against control, counted positive when it falls.
